# Measurements reported in PubChem BioAssay (Tox21).
# Where “and” joins values, the source holds several entries; their conditions need not be identical. Identical values can stand only once. This list was built around the results that the source calls inconclusive (neither active nor inactive); the mix of calls is not that of the screen. For part of these data: Potencies beside an inconclusive call are fits to weak or partial responses and may not hold up. Some structures have more than one record in an assay (separate samples or runs), and their calls can disagree. Calls of active or inactive are those of the source. Unless noted, the call rests on the fitted dose curve; in most records, active means well fitted curve in the direction sought with a large enough effect in the repeat runs; inconclusive means weak or mixed curves; inactive means no such curve, though single readings can be large; an effect the other way counts as inactive or inconclusive.
# Legend:
# [1] = molecular target: Estrogen receptor beta (Homo sapiens) (UniProt Q92731); test: qHTS assay to identify small molecule agonists of the estrogen receptor beta (ER-beta) signaling pathway (AID 1259377; active means well fitted activation curve with a large enough effect in the signal ratio in the repeat runs, not every such curve was filed as active; inconclusive means weak or mixed curves, or effect the other way; the % refers to the signal ratio; further: potency means the concentration at half of the fitted maximal effect; on activation: on the % scale 0 is the no-effect control and ±100 the full control effect); conditions: ER-beta-UAS-bla HEK293T, beta-lactamase FRET ratio, 16 h; activation: at 92.4 µM (top of the series) unless noted
# Chain of UniProt Q92731 (Q92731 whole entry, looked up): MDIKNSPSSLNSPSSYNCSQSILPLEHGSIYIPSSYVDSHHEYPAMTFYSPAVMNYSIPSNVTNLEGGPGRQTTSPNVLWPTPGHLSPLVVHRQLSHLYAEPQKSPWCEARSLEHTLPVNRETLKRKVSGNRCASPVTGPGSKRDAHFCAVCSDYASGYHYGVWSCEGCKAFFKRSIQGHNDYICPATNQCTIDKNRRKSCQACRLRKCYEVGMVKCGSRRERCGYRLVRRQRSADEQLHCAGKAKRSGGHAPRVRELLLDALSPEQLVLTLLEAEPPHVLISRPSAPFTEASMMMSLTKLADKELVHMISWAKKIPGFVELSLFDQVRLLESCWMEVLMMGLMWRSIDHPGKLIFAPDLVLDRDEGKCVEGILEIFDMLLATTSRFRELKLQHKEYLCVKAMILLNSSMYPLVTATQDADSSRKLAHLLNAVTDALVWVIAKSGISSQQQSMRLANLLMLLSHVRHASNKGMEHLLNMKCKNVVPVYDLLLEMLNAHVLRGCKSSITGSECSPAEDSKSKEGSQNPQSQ
# In short: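 Measured by fluorescence intensity from a B/G FRET beta-lactamase substrate (2 h, room temperature) in ER-beta-UAS-bla HEK293T cells treated with DMSO-dissolved compounds for 16 hr at 37C and 5% CO2.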
# [2] = molecular target: Estrogen receptor beta (Homo sapiens) (UniProt Q92731); test: qHTS assay to identify small molecule antagonists of the estrogen receptor beta (ER-beta) signaling pathway (AID 1259378; active means well fitted inhibition curve with a large enough effect in the signal ratio in the repeat runs, not every such curve was filed as active; inconclusive means weak or mixed curves, or effect the other way; inactive means no such curve, though single readings can be large or run the other way; the % refers to the signal ratio; further: potency means the concentration at half of the fitted maximal effect; on activity, negative = inhibition: on the % scale 0 is the no-effect control and ±100 the full control effect); conditions: ER-beta-UAS-bla HEK293T, beta-lactamase FRET ratio, 16 h
# In short: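 ER-beta-UAS-bla HEK293T (GripTite) cells in 2% charcoal-stripped FBS medium were preincubated 6 hr at 37C, dosed with compound, then stimulated with 1 nM E2 (final) for 16 hr; beta-lactamase reporter read by B/G FRET fluorescence after 2 hr substrate loading.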
# [3] = molecular target: Progesterone receptor (Homo sapiens) (UniProt P06401); test: qHTS assay to identify small molecule antagonists of the progesterone receptor (PR) signaling pathway (AID 1346795; active means well fitted inhibition curve with a large enough effect in the signal ratio in the repeat runs, not every such curve was filed as active; inconclusive means weak or mixed curves; the % refers to the signal ratio; further: potency means the concentration at half of the fitted maximal effect; on activity change, negative = inhibition: on the % scale 0 is the no-effect control and ±100 the full control effect); conditions: PR-UAS-bla HEK293T, beta-lactamase FRET ratio, 16 h; activity change, negative = inhibition: at 92.4 µM (top of the series) unless noted
# Chain of UniProt P06401 (P06401 whole entry, looked up): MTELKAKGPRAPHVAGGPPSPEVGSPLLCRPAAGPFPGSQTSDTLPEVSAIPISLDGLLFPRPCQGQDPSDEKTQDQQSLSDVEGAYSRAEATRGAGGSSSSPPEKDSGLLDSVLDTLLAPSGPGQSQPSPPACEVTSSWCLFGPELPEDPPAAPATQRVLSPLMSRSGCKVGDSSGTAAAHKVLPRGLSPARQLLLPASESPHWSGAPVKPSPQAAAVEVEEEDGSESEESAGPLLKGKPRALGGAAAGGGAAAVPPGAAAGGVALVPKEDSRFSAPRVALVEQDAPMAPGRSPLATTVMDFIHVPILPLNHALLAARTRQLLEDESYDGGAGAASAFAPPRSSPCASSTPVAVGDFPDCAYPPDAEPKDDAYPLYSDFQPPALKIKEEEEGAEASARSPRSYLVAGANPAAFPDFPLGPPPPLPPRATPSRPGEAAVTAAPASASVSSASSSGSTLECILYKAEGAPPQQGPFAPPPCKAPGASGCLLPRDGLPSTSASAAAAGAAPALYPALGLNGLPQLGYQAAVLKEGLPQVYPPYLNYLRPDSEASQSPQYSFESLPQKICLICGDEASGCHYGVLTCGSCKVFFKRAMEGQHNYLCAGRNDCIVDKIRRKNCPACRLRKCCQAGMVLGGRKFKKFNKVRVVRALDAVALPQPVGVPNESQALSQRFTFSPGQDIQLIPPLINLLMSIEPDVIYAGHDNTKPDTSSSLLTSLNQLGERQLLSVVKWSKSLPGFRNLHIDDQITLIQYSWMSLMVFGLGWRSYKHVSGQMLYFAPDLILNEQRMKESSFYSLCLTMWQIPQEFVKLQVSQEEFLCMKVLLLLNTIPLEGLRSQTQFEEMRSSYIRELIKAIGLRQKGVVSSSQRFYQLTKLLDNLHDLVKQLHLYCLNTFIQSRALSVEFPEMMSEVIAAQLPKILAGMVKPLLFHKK
# In short: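 After 6 hr plating at 37C in 2% stripped-serum medium, PR-UAS-bla HEK293T cells got compounds, then 1 nM R5020. Sixteen hours later, LiveBLAzer substrate was applied for 2 hr at room temperature and fluorescence was recorded.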
# [4] = qHTS assay to identify small molecule agonists of the progesterone receptor (PR) signaling pathway - cell viability counter screen (AID 1346799; calls by dose curve; further: nearly all actives have a fitted effect of over 45% in size; further: potency means the concentration at half of the fitted maximal effect)
# In short: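 Viability was scored by ATP luminescence (CellTiter-Glo, 30 min, room temperature) in the same wells used for the reporter readout, after 16 hr compound exposure of PR-UAS-bla HEK293T cells.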
# [5] = qHTS assay to identify small molecule antagonists of the TGF-beta/Smad signaling pathway (AID 1346924; active means well fitted inhibition curve with a large enough effect in the signal ratio in the repeat runs, not every such curve was filed as active; inconclusive means weak or mixed curves; the % refers to the signal ratio; further: potency means the concentration at half of the fitted maximal effect); conditions: SBE-bla HEK293T, TGF-beta/Smad reporter, beta-lactamase ratio; activity, negative = inhibition: at 76.8 µM (top of the series) unless noted
# In short: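 SBE-bla HEK 293T cells were plated overnight, then received compound in DMSO plus TGF-beta1 (added as a 0.25 ng/mL solution) and were incubated 5 h at 37 C. Beta-lactamase reporter activity was read after 2 h at room temperature with LiveBLAzer B/G FRET substrate (ex 405, em 460/530 nm).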
# [6] = qHTS assay to identify small molecule agonists of the androgen receptor (AR) signaling pathway in the presence of an antagonist - cell viability counter screen (AID 1259379); further: potency means the concentration at half of the fitted maximal effect; nearly all actives have a fitted effect of over 25% in size
# In short: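 Fluorescence from CellTiter-Fluor, added after 15 hr and read 1 hr later, gave cell viability. Cells were MDA-kb2 exposed to compounds (15 concentrations) in the presence of 3.0uM nilutamide at 37C, 0% CO2.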
# [7] = qHTS assay to identify small molecule agonists of the estrogen receptor beta (ER-beta) signaling pathway - cell viability counter screen (AID 1259380); further: potency means the concentration at half of the fitted maximal effect; nearly all actives have a fitted effect of over 30% in size
# In short: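 Same-well viability counter screen. Cells: ER-beta-UAS-bla HEK293T, plated 6 hr before compound, in 2% charcoal-stripped FBS. Compound exposure 16 hr, 37C; viability by CellTiter-Glo luminescence after 30 min at room temperature.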
# [8] = qHTS assay to identify small molecule antagonists of the estrogen receptor beta (ER-beta) signaling pathway - cell viability counter screen (AID 1259382); further: nearly all actives have a fitted effect of over 55% in size; further: potency means the concentration at half of the fitted maximal effect
# In short: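 Following a 6 hr plating period, HEK293T cells carrying a UAS-driven beta-lactamase reporter under ER-beta control received compounds and 1nM E2 (final). After 16 hr at 37C and 2 hr substrate loading, CellTiter-Glo luminescence indicated viability.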
# [9] = molecular target: Thyrotropin receptor (Homo sapiens) (UniProt P16473); test: qHTS assay to identify small molecule antagonists of the thyroid stimulating hormone receptor (TSHR) signaling pathway (AID 1259385; calls by dose curve; further: nearly all actives have a fitted effect of over 20% in size; further: potency means the concentration at half of the fitted maximal effect); conditions: TSHR-HEK293 cAMP HTRF, TSH-stimulated antagonist mode; activity change, negative = inhibition: at 92.4 µM (top of the series) unless noted
# Chain of UniProt P16473 (P16473 whole entry, looked up): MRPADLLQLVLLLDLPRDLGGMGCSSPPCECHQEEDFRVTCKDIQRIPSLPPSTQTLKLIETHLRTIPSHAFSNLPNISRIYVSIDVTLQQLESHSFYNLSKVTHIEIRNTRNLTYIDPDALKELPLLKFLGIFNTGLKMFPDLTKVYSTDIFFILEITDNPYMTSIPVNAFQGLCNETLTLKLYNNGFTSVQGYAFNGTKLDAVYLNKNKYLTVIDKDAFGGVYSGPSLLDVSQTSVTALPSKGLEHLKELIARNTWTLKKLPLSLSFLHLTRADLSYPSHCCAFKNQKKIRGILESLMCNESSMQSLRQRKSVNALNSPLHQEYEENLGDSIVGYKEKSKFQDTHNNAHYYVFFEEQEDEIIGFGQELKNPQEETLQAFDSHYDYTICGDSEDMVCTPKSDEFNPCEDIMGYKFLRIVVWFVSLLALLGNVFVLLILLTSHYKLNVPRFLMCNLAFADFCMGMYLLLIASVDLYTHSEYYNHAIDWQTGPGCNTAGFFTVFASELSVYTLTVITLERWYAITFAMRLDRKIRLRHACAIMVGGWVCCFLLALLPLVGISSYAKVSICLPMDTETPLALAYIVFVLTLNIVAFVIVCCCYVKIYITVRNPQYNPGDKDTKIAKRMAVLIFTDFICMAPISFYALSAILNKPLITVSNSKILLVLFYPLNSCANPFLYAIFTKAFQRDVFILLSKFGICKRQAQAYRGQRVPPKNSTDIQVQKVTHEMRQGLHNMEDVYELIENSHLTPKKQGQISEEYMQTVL
# In short: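 TSHR-HEK293 cells were plated and held 18 h at 37C/5% CO2, then given compound plus Ro20-1724 and stimulated with TSH at 1.5 ng/mL final. After 30 min at room temperature, cAMP was detected with cAMP-d2/anti-cAMP-cryptate (1 h) by fluorescence.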
# [10] = molecular target: Progesterone receptor (Homo sapiens) (UniProt P06401); test: qHTS assay to identify small molecule agonists of the progesterone receptor (PR) signaling pathway (AID 1346784; calls by dose curve; further: potency means the concentration at half of the fitted maximal effect; nearly all actives have a fitted effect of over 30% in size); conditions: PR-UAS-bla HEK293T, beta-lactamase FRET ratio, 16 h; activation: at 92.4 µM (top of the series) unless noted
# In short: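 The screen uses PR-UAS-bla HEK 293T cells in charcoal-stripped serum (2%). Compounds are applied for 16 hr at 37C after a 6 hr pre-incubation, and reporter activity is detected with a FRET beta-lactamase substrate after 2 hr at room temperature.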
# [11] = qHTS assay to identify small molecule antagonists of the progesterone receptor (PR) signaling pathway - cell viability counter screen (AID 1346798); further: potency means the concentration at half of the fitted maximal effect; nearly all actives have a fitted effect of over 50% in size
# In short: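 Viability was determined by ATP-based luminescence (CellTiter-Glo) in PR-UAS-bla HEK293T cells cultured in 2% charcoal-stripped serum and incubated 16 hr with compounds under R5020 stimulation.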
# [12] = qHTS assay to identify small molecule agonists or antagonists of the thyroid stimulating hormone receptor (TSHR) signaling pathway - wild type cell line counter screen (AID 1259384; calls by dose curve; further: potency means the concentration at half of the fitted maximal effect); conditions: HEK293 wild type, cAMP HTRF counter-screen; cAMP activity change: at 92.4 µM (top of the series), stronger effect = higher value unless noted
# In short: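 Wild-type HEK293 cells were plated 18 h at 37 C/5% CO2, pin-dosed with compound plus Ro20-1724 medium, held 30 min at room temperature, then given cAMP-d2 and anti-cAMP-cryptate; fluorescence was read after 1 h. Fifteen concentrations, triplicate.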
# [13] = qHTS assay to identify small molecule agonists of the TGF-beta/Smad signaling pathway - cell viability counter screen (AID 1346829); further: potency means the concentration at half of the fitted maximal effect; nearly all actives have a fitted effect of over 45% in size
# In short: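 After overnight seating at 37 C and 5% CO2, reporter cells got compounds for 5 hr and FRET substrate for 2 hr; cell viability then came from CellTiter-Glo luminescence.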
# [14] = qHTS assay to identify small molecule agonists of the estrogen receptor alpha (ER-alpha) signaling pathway in the presence of an antagonist - cell viability counter screen (AID 1259386);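 further: potency means the concentration at half of the fitted maximal effect; cells exposed to compounds for 22 h at 37 °C before the viability read; nearly all actives have a fitted effect of over 30% in size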
# In short: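 Cells are starved of estrogens for 5 days in charcoal-stripped serum, seeded for 24hr and co-treated with ICI-182,780 (10.0nM final) and test compounds. After 22hr at 37C, viability is read as CellTiter-Fluor fluorescence.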
# [15] = qHTS assay to identify small molecule agonists of the TGF-beta/Smad signaling pathway (AID 1346859; active means well fitted activation curve with a large enough effect in the signal ratio in the repeat runs, not every such curve was filed as active; inconclusive means weak or mixed curves; the % refers to the signal ratio; further: on the % scale 0 is the no-effect control and ±100 the full control effect); conditions: SBE-bla HEK293T, TGF-beta/Smad beta-lactamase reporter, 5 h; activation: at 76.8 µM (top of the series) unless noted
# In short: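 Dual-wavelength fluorescence (460/530 nm emission) quantified beta-lactamase expression under the Smad binding element in HEK 293T cells following 5 hr compound treatment at 37 C.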
# [16] = activity, negative = inhibition: at 92.4 µM (top of the series) unless noted
# Tags describe the fitted curve by direction and shape or compound fluorescence and quenching.
smiles,measurement,setting,value
COc1cc(C)ccc1O,activation,[1],inconclusive: 13.9%
same,Potency,[2]; [16],inactive
CCn1cc(C(=O)O)c(=O)c2cc(F)c(N3CCNCC3)cc21,Potency,[1],inactive
same,Potency,[2]; [16],inactive
C[C@]12C=CC(=O)C=C1CC[C@@H]1[C@@H]2C(=O)C[C@@]2(C)[C@H]1CC[C@]2(O)C(=O)CO,Potency,[1],"inconclusive: 68.9 µM [rising, single point]"
same,"activity, negative = inhibition",[2]; [16],inconclusive: 13.3% [at 42.5 µM]
same,"activity, negative = inhibition",[2]; at 92.4 µM (top of the series),inactive: 0.957% and inactive: 25.3%
same,"activity change, negative = inhibition",[3],inconclusive: -52%
same,Potency,[4],"inconclusive: 21.8 µM [rising, partial curve, poor fit]"
same,"activity, negative = inhibition",[5],inconclusive: 0.218%
CC(=O)OCC[N+](C)(C)C,Potency,[1],inactive
COC(=O)c1ccc(O)cc1,Potency,[1],"inconclusive: 13.3 µM [fluorescent, single point]"
same,activation,[1],inconclusive: 13.7%
same,Potency,[4],"inconclusive: 0.596 µM [cytotoxic, single point]"
OCCN1CCN(CCCN2c3ccccc3Sc3ccc(Cl)cc32)CC1,Potency,[1],"inconclusive: 26.6 µM [rising, partial curve]"
same,Potency,[2]; [16],"inconclusive: 13.3 µM [rising, partial curve]"
same,Potency,[6],"inconclusive: 33.5 µM [cytotoxic, single point]"
same,Potency,[7],active: 23.7 µM
same,Potency,[8],active: 13.3 µM
same,Potency,[9],active: 29.8 µM
same,Potency,[10],"inconclusive: 33.5 µM [cytotoxic, single point]"
same,Potency,[3],"inconclusive: 33.5 µM [falling, single point]"
same,Potency,[11],active: 23.7 µM
same,Potency,[4],active: 13.3 µM
same,"activity, negative = inhibition",[5],inconclusive: -15.2% [at 35.3 µM]
COc1cccc2c1C(=O)c1c(O)c3c(c(O)c1C2=O)C[C@@](O)(C(=O)CO)C[C@@H]3O[C@H]1C[C@H](N)[C@H](O[C@@H]2CCCCO2)[C@H](C)O1,activation,[1],inconclusive: 3.33% [at 42.5 µM]
same,Potency,[2]; [16],"inconclusive: 26.6 µM [rising, partial curve, poor fit]"
same,Potency,[6],"inconclusive: 5.96 µM [cytotoxic, full curve]"
same,Potency,[7],"inconclusive: 0.133 µM [cytotoxic, full curve]"
same,Potency,[8],"inconclusive: 15 µM [cytotoxic, partial curve]"
same,Potency,[10],inconclusive: 13.3 µM
same,Potency,[3],inconclusive: 15 µM [partial curve]
same,Potency,[4],inactive
same,"activity, negative = inhibition",[5],inconclusive: 4.66% [at 35.3 µM]
CN1CCCC(n2nc(Cc3ccc(Cl)cc3)c3ccccc3c2=O)CC1 (stereo unspecified),Potency,[1],"inconclusive: 26.6 µM [rising, partial curve]"
same,"activity, negative = inhibition",[2]; [16],inconclusive: -40.6% [at 42.5 µM]
same,Potency,[6],"inconclusive: 47.3 µM [cytotoxic, partial curve, poor fit]"
same,Potency,[7],active: 26.6 µM
same,Potency,[8],"inconclusive: 13.3 µM [cytotoxic, partial curve]"
same,Potency,[9],active: 26.6 µM
same,"activity change, negative = inhibition",[3],inconclusive: -25.8% [at 42.5 µM]
same,Potency,[11],active: 26.6 µM
same,Potency,[5],"inconclusive: 21.3 µM [rising, partial curve, poor fit]"
CC(C)(C)CC(C)(C)c1ccc(O)c(-n2nc3ccccc3n2)c1,Potency,[1],"inconclusive: 27.7 µM [rising, full curve]"
same,Potency,[2]; [16],"inconclusive: 43.9 µM [rising, partial curve, poor fit]"
same,Potency,[6],"inconclusive: 78.1 µM [cytotoxic, single point]"
same,Potency,[7],"inconclusive: 27.3 µM [cytotoxic, single point] and inconclusive: 33.5 µM [cytotoxic, single point]"
same,Potency,[8],"inconclusive: 69.6 µM [cytotoxic, single point] and inconclusive: 77 µM [cytotoxic, single point]"
same,Potency,[12],inactive
same,Potency,[11],"active: 49.2 µM and inconclusive: 61.1 µM [cytotoxic, single point] and inconclusive: 33.5 µM [cytotoxic, single point]"
same,Potency,[4],"inconclusive: 69.6 µM [cytotoxic, single point] and inconclusive: 77 µM [cytotoxic, single point] and inconclusive: 106 nM [cytotoxic, single point]"
same,Potency,[13],active: 44.3 µM
same,Potency,[5],"inconclusive: 55.7 µM [rising, single point]"
Nc1ccc(O)c([N+](=O)[O-])c1,Potency,[1],"inconclusive: 27 µM [fluorescent, full curve]"
same,Potency,[2]; [16],inconclusive: 61.1 µM
same,Potency,[6],active: 27.3 µM
same,Potency,[7],"inconclusive: 68.6 µM [cytotoxic, single point]"
same,Potency,[8],inactive
same,Potency,[12],inconclusive: 41.4 µM
same,"activity change, negative = inhibition",[9],inconclusive: 2.9%
same,Potency,[14],active: 43.3 µM
same,Potency,[10],"inconclusive: 48.6 µM [activator, partial curve]"
same,Potency,[3],"inconclusive: 12.2 µM [falling, full curve]"
same,Potency,[11],"inconclusive: 19.3 µM [rising, full curve]"
same,Potency,[4],"inconclusive: 38.2 µM [rising, partial curve]"
same,Potency,[15],inactive
